For 27 molecules, Ki results are on record in patent US9873709B2 (priority 2013, dated 2018).

The structures appear in SMILES notation.

For this experiment, the target named is isolated recombinant JAK1 kinase domain (Homo sapiens (Human), UniProt P23458). The note with it: read-out: JAK1 Ki; isolated recombinant JAK1 kinase domain, 25 μM ATP.
For the molecule `CN1CCC(N(C)C(=O)c2ccc(Nc3nc4c(C5=CCN(C(=O)N6CCS(=O)(=O)CC6)CC5)cccn4n3)cc2)CC1` [Example 2-162, 4-[[8-[1-(1,1-dioxo-1,4-thiazinane-4-carbonyl)-3,6-dihydro-2H-pyridin-4-yl]-[1,2,4]triazolo[1,5-a]pyridin-2-yl]amino]-N-methyl-N-(1-methyl-4-piperidyl)benzamide], the Ki was determined as 37.3 nM.

`CN1CCC(N(C)C(=O)c2ccc(Nc3nc4c(C5=CCN(C(=O)CC(F)(F)F)CC5)cccn4n3)cc2)CC1` [Example 2-163, N-methyl-N-(1-methyl-4-piperidyl)-4-[[8-[1-(3,3,3-trifluoropropanoyl)-3,6-dihydro-2H-pyridin-4-yl]-[1,2,4]triazolo[1,5-a]pyridin-2-yl]amino]benzamide]: the Ki was 1.35 nM.

Take `CN1CCC(N(C)C(=O)c2ccc(Nc3nc4c(C5=CCN(C(=O)C6CC(C)(O)C6)CC5)cccn4n3)cc2)CC1` (stereo not drawn) [Example 2-164, 4-[[8-[1-(3-hydroxy-3-methyl-cyclobutanecarbonyl)-3,6-dihydro-2H-pyridin-4-yl]-[1,2,4]triazolo[1,5-a]pyridin-2-yl]amino]-N-methyl-N-(1-methyl-4-piperidyl)benzamide]: the Ki was 15 nM.

For `CCOC(=O)N1CC=C(c2cccn3nc(Nc4ccc(C(=O)N5CC(CN)C5)cc4)nc23)CC1` [Example 2-165, ethyl 4-[2-[4-[3-(aminomethyl)azetidine-1-carbonyl]anilino]-[1,2,4]triazolo[1,5-a]pyridin-8-yl]-3,6-dihydro-2H-pyridine-1-carboxylate], the inhibition constant (Ki) was 1.61 nM.

`CCOC(=O)N1CC=C(c2cccn3nc(Nc4ccc(C(=O)N5CCCC(c6ccccn6)C5)cc4)nc23)CC1` (stereo not drawn) [Example 2-166, ethyl 4-[2-[4-[3-(2-pyridyl)piperidine-1-carbonyl]anilino]-[1,2,4]triazolo[1,5-a]pyridin-8-yl]-3,6-dihydro-2H-pyridine-1-carboxylate]: the Ki came to 3.57 nM.

Take `CCOC(=O)N1CC=C(c2cccn3nc(Nc4ccc(C(=O)NCCN5CC(C)OC(C)C5)cc4)nc23)CC1` (stereo not drawn) [Example 2-167, ethyl 4-[2-[4-[2-(2,6-dimethylmorpholin-4-yl)ethylcarbamoyl]anilino]-[1,2,4]triazolo[1,5-a]pyridin-8-yl]-3,6-dihydro-2H-pyridine-1-carboxylate]: the Ki came to 1.98 nM.

For the molecule `CCOC(=O)N1CC=C(c2cccn3nc(Nc4ccc(C(=O)N5CCN(CCO)CC5)cc4)nc23)CC1` [Example 2-168, ethyl 4-[2-[4-[4-(2-hydroxyethyl)piperazine-1-carbonyl]anilino]-[1,2,4]triazolo[1,5-a]pyridin-8-yl]-3,6-dihydro-2H-pyridine-1-carboxylate], the inhibition constant (Ki) turned out to be 2.53 nM.

As to `CCOC(=O)N1CC=C(c2cccn3nc(Nc4ccc(C(=O)NCCN(C)C)cc4)nc23)CC1` [Example 2-169, ethyl 4-[2-[4-[2-(dimethylamino)ethylcarbamoyl]anilino]-[1,2,4]triazolo[1,5-a]pyridin-8-yl]-3,6-dihydro-2H-pyridine-1-carboxylate], the Ki stood at 2.74 nM.

Take `CCOC(=O)N1CC=C(c2cccn3nc(Nc4ccc(C(=O)NC(C)c5cccc(C)n5)cc4)nc23)CC1` (stereo not drawn) [Example 2-170, ethyl 4-[2-[4-[1-(6-methyl-2-pyridyl)ethylcarbamoyl]anilino]-[1,2,4]triazolo[1,5-a]pyridin-8-yl]-3,6-dihydro-2H-pyridine-1-carboxylate]: the inhibition constant (Ki) came out at 1.39 nM.

Turning to `CCOC(=O)N1CC=C(c2cccn3nc(Nc4ccc(C(=O)N(Cc5ccccn5)C5CC5)cc4)nc23)CC1` [Example 2-171, ethyl 4-[2-[4-[cyclopropyl(2-pyridylmethyl)carbamoyl]anilino]-[1,2,4]triazolo[1,5-a]pyridin-8-yl]-3,6-dihydro-2H-pyridine-1-carboxylate], the Ki amounted to 3.51 nM.

As for `CCOC(=O)N1CC=C(c2cccn3nc(Nc4ccc(C(=O)NCCc5ccncc5)cc4)nc23)CC1` [Example 2-172, ethyl 4-[2-[4-[2-(4-pyridyl)ethylcarbamoyl]anilino]-[1,2,4]triazolo[1,5-a]pyridin-8-yl]-3,6-dihydro-2H-pyridine-1-carboxylate], the Ki turned out to be 1.53 nM.

Regarding `CCOC(=O)N1CC=C(c2cccn3nc(Nc4ccc(C(=O)N(C)Cc5ncccc5C)cc4)nc23)CC1` [Example 2-173, ethyl 4-[2-[4-[methyl-[(3-methyl-2-pyridyl)methyl]carbamoyl]anilino]-[1,2,4]triazolo[1,5-a]pyridin-8-yl]-3,6-dihydro-2H-pyridine-1-carboxylate], the Ki came out at 4.96 nM.

As for `CCOC(=O)N1CC=C(c2cccn3nc(Nc4ccc(C(=O)N(CC)Cc5ccncc5)cc4)nc23)CC1` [Example 2-174, ethyl 4-[2-[4-[ethyl(4-pyridylmethyl)carbamoyl]anilino]-[1,2,4]triazolo[1,5-a]pyridin-8-yl]-3,6-dihydro-2H-pyridine-1-carboxylate], the Ki was determined as 2.51 nM.

`CCOC(=O)N1CC=C(c2cccn3nc(Nc4ccc(C(=O)N5CC6(CCN(C)CC6)C5)cc4)nc23)CC1` [Example 2-175, ethyl 4-[2-[4-(7-methyl-2,7-diazaspiro[3.5]nonane-2-carbonyl)anilino]-[1,2,4]triazolo[1,5-a]pyridin-8-yl]-3,6-dihydro-2H-pyridine-1-carboxylate]: the Ki was determined as 1.19 nM.

For the molecule `CCOC(=O)N1CC=C(c2cccn3nc(Nc4ccc(C(=O)NCc5cccnc5C)cc4)nc23)CC1` [Example 2-177, ethyl 4-[2-[4-[(2-methyl-3-pyridyl)methylcarbamoyl]anilino]-[1,2,4]triazolo[1,5-a]pyridin-8-yl]-3,6-dihydro-2H-pyridine-1-carboxylate], the Ki is 0.87 nM.

Turning to `CCOC(=O)N1CC=C(c2cccn3nc(Nc4ccc(C(=O)NCc5cncc(C)c5)cc4)nc23)CC1` [Example 2-178, ethyl 4-[2-[4-[(5-methyl-3-pyridyl)methylcarbamoyl]anilino]-[1,2,4]triazolo[1,5-a]pyridin-8-yl]-3,6-dihydro-2H-pyridine-1-carboxylate], the Ki stood at 0.97 nM.

Consider `CCOC(=O)N1CC=C(c2cccn3nc(Nc4ccc(C(=O)NCCN5CCC(C)CC5)cc4)nc23)CC1` [Example 2-179, ethyl 4-[2-[4-[2-(4-methyl-1-piperidyl)ethylcarbamoyl]anilino]-[1,2,4]triazolo[1,5-a]pyridin-8-yl]-3,6-dihydro-2H-pyridine-1-carboxylate], for which the Ki was found to be 2.34 nM.

With `CCOC(=O)N1CC=C(c2cccn3nc(Nc4ccc(C(=O)N5CC6CNCC(C5)O6)cc4)nc23)CC1` [Example 2-180, ethyl 4-[2-[4-(9-oxa-3,7-diazabicyclo[3.3.1]nonane-3-carbonyl)anilino]-[1,2,4]triazolo[1,5-a]pyridin-8-yl]-3,6-dihydro-2H-pyridine-1-carboxylate], the Ki stood at 5.56 nM.

Take `CCOC(=O)N1CC=C(c2cccn3nc(Nc4ccc(C(=O)N5CCC6(CCNCC6)CC5)cc4)nc23)CC1` [Example 2-181, ethyl 4-[2-[4-(3,9-diazaspiro[5.5]undecane-3-carbonyl)anilino]-[1,2,4]triazolo[1,5-a]pyridin-8-yl]-3,6-dihydro-2H-pyridine-1-carboxylate]: the Ki came out at 2.74 nM.

For the molecule `CCOC(=O)N1CC=C(c2cccn3nc(Nc4ccc(C(=O)N5CCCC6(CCCN6)CC5)cc4)nc23)CC1` (stereo not drawn) [Example 2-182, ethyl 4-[2-[4-(1,9-diazaspiro[4.6]undecane-9-carbonyl)anilino]-[1,2,4]triazolo[1,5-a]pyridin-8-yl]-3,6-dihydro-2H-pyridine-1-carboxylate], the Ki is 3.2 nM.

`CCOC(=O)N1CC=C(c2cccn3nc(Nc4ccc(C(=O)N5CCC6(CCCN6)CC5)cc4)nc23)CC1` [Example 2-183, ethyl 4-[2-[4-(1,8-diazaspiro[4,5]decane-8-carbonyl)anilino]-[1,2,4]triazolo[1,5-a]pyridin-8-yl]-3,6-dihydro-2H-pyridine-1-carboxylate]: the Ki was found to be 3.35 nM.

Regarding `CCOC(=O)N1CC=C(c2cccn3nc(Nc4ccc(C(=O)N5CCC6(CC5)CNC6)cc4)nc23)CC1` [Example 2-184, ethyl 4-[2-[4-(2,7-diazaspiro[3.5]nonane-7-carbonyl)anilino]-[1,2,4]triazolo[1,5-a]pyridin-8-yl]-3,6-dihydro-2H-pyridine-1-carboxylate], the Ki came to 3.51 nM.

Consider `O=C(CCC(F)(F)F)N1CC=C(c2cccn3nc(Nc4ccc(C(=O)N5CC6(CCCNC6)C5)cc4)nc23)CC1` [Example 2-186, 1-[4-[2-[4-(2,8-diazaspiro[3.5]nonane-2-carbonyl)anilino]-[1,2,4]triazolo[1,5-a]pyridin-8-yl]-3,6-dihydro-2H-pyridin-1-yl]-4,4,4-trifluoro-butan-1-one], for which the Ki was determined as 1.35 nM.

For `O=C(CCC(F)(F)F)N1CC=C(c2cccn3nc(Nc4ccc(C(=O)N5CCC6(CCNCC6)C5)cc4)nc23)CC1` [Example 2-187, 1-[4-[2-[4-(2,8-diazaspiro[4.5]decane-2-carbonyl)anilino]-[1,2,4]triazolo[1,5-a]pyridin-8-yl]-3,6-dihydro-2H-pyridin-1-yl]-4,4,4-trifluoro-butan-1-one], the Ki worked out at 1.6 nM.

As for `O=C(NC1COC2(CCNCC2)C1)c1ccc(Nc2nc3c(C4=CCN(C(=O)CCC(F)(F)F)CC4)cccn3n2)cc1` (stereo not drawn) [Example 2-188, N-(1-oxa-8-azaspiro[4.5]decan-3-yl)-4-[[8-[1-(4,4,4-trifluorobutanoyl)-3,6-dihydro-2H-pyridin-4-yl]-[1,2,4]triazolo[1,5-a]pyridin-2-yl]amino]benzamide], the Ki worked out at 0.68 nM.

As to `O=C(NCC1CCC2(CCNCC2)CO1)c1ccc(Nc2nc3c(C4=CCN(C(=O)CCC(F)(F)F)CC4)cccn3n2)cc1` (stereo not drawn) [Example 2-189, N-(2-oxa-9-azaspiro[5.5]undecan-3-ylmethyl)-4-[[8-[1-(4,4,4-trifluorobutanoyl)-3,6-dihydro-2H-pyridin-4-yl]-[1,2,4]triazolo[1,5-a]pyridin-2-yl]amino]benzamide], the Ki turned out to be 0.88 nM.

As to `O=C(CCC(F)(F)F)N1CC=C(c2cccn3nc(Nc4ccc(C(=O)N5CCCC6(CNCCO6)C5)cc4)nc23)CC1` (stereo not drawn) [Example 2-190, 4,4,4-trifluoro-1-[4-[2-[4-(1-oxa-4,8-diazaspiro[5.5]undecane-8-carbonyl)anilino]-[1,2,4]triazolo[1,5-a]pyridin-8-yl]-3,6-dihydro-2H-pyridin-1-yl]butan-1-one], the inhibition constant (Ki) came out at 1.76 nM.

By Ki is commonly meant the equilibrium dissociation constant of an inhibitor or competing ligand from its target.
